In PubChem BioAssay AID624417 (National Center for Advancing Translational Sciences (NCATS), 2012):
About 6,400 (1.6%) of roughly 410,000 compounds were called active. The shares of active, inactive and inconclusive entries below differ from those in the screen. The call rests on the fitted dose curve; in most records, active means well fitted inhibition curve with a large enough effect; inconclusive means small, poorly fitted or top-dose-only effect; inactive means no such curve, though single readings can be large or run the other way. Potencies of inconclusive entries are left out as doubtful fits.

biological target: Glucagon-like peptide 1 receptor (Homo sapiens) (UniProt P43220); experiment: qHTS of GLP-1 Receptor Inverse Agonists (Inhibition Mode); details: HEK293 GLP-1R CRE-luciferase, luminescence, 24 h, GLP-1R form is constitutively active; activity change, negative = inhibition: at 38.3 µM (top of the series) unless noted; further: nearly all actives have a fitted effect of over 55% in size
In short: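 Constitutively active GLP-1R drives a cAMP-responsive luciferase in stably transfected HEK293 cells; test compounds are added after overnight (12 h) attachment and left 24 hr, and signal loss in luminescence marks inhibition.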
On the % scale 0 is the no-effect control and ±100 the full control effect; potency means the concentration at half of the fitted maximal effect; tags describe the fitted curve by direction and shape.

Chain of UniProt P43220 (P43220 whole entry, looked up): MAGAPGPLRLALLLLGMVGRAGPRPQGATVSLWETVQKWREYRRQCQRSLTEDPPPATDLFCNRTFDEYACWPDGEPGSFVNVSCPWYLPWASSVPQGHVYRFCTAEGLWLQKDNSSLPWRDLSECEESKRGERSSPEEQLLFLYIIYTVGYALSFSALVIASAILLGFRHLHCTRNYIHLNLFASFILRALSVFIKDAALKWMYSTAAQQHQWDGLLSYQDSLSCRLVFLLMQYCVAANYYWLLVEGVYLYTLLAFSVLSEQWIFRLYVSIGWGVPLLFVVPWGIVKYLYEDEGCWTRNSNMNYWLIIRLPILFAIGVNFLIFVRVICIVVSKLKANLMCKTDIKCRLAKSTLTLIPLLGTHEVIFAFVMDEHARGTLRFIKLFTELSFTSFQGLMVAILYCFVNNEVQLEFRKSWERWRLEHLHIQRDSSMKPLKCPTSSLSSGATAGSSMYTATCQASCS

Row | SMILES | Potency | activity change, negative = inhibition
1 | Cc1cccn2c(CNCC3(c4ccccc4)CCCC3)c(C(=O)N3CCOCC3)nc12 | inconclusive [inhibitor, single point] | –
2 | N#Cc1cccc(-c2csc(C(O)(c3ccccc3)C(F)(F)F)n2)c1 (stereo not given) | inconclusive [inhibitor, partial curve, poor fit] | –
3 | Cc1ccnc(NC(=O)c2ccccc2NC(=O)C(C)(C)C)c1 | inconclusive [inhibitor, partial curve, poor fit] | –
4 | O=C(NCC(c1ccco1)N1CCN(c2ccccc2F)CC1)OCc1ccccc1 (stereo not given) | inconclusive [inhibitor, single point] | –
5 | N#Cc1cccc(NC(=O)c2cc(C3CCCCN3C(=O)c3ccc4c(c3)CCO4)on2)c1 (stereo not given) | inconclusive [inhibitor, partial curve, poor fit] | –
6 | O=C(CCC1N=C2c3ccccc3N=C(SCC(=O)Nc3cccc(Cl)c3)N2C1=O)NCc1ccco1 (stereo not given) | – | inactive: 0.143%
7 | CCOc1ccc2c(c1)C(=NNC(=O)c1ccncc1)c1cc(OCC)ccc1-2 | – | inactive: 4.41%
8 | COc1ccc(C(CNC(=O)C(CCSC)NC(=O)c2ccccc2Cl)N2CCCC2)cc1 (stereo not given) | – | inactive: -24.6%
9 | CNCc1c(OCc2ccccc2)ccc2ccccc12 | inconclusive [inhibitor, partial curve, poor fit] | –
10 | CCOc1ccc(NS(=O)(=O)c2c(C)nc3sc(C)c(C)n3c2=O)cc1 | – | inactive: -20.4%
11 | CC(C)(C)c1ccc(C(=O)CCCSC2=C(C#N)C(c3ccco3)C3=C(CCCC3=O)N2)cc1 (stereo not given) | inconclusive [inhibitor, partial curve] | –
12 | COc1cc(C=CC(=O)c2ccccc2)cc(OC)c1OC | inconclusive [inhibitor, single point] | –
13 | O=C(NCCC1=CCCCC1)C1CCCN(S(=O)(=O)c2cccnc2)C1 (stereo not given) | – | inactive: -18%
14 | O=C(COC(=O)c1ccccc1Br)Nc1ccc(F)cc1 | inconclusive [inhibitor, single point] | –
15 | CCN1C(=O)c2ccccc2S(=O)(=O)c2ccc(C(=O)NCc3ccccc3)cc21 | – | inactive: 8.36%
16 | COc1ccc(S(=O)(=O)Nc2cc3[nH]c(=O)oc3cc2C)cc1 | inconclusive [inhibitor, partial curve, poor fit] | –
17 | CCCCOc1ccc(C(=O)Nc2ccc3c(c2)CCCN3C(=O)c2cccs2)cc1 | inconclusive [inhibitor, partial curve, poor fit] | –
18 | COc1cccc(Nc2ncccc2C(=O)O)c1 | inconclusive [inhibitor, partial curve, poor fit] | –
19 | COc1ccc(C(=O)c2c(-c3ccc(OC)cc3)oc3ccccc23)cc1 | inconclusive [inhibitor, single point] | –
20 | COCCn1c(=S)[nH]c2sc3c(c2c1=O)CCC(C)C3 (stereo not given) | – | inactive: -2.94%
21 | Cc1ccc(S(=O)(=O)N(C)S(=O)(=O)c2ccc(C)cc2)cc1 | inconclusive [inhibitor, single point] | –
22 | COc1cccc(-c2c(C#N)c(N)nc3c2c(C)nn3-c2ccccc2)c1O | inconclusive [inhibitor, partial curve, poor fit] | –

Row | SMILES | Potency | activity change, negative = inhibition
23 | Cc1ccc(/C=C/C(=O)Nc2ccncc2)o1 | – | inactive: 0.534%
24 | O=C(NCc1ccccc1CN1CCCC1)c1ccc(Cl)c(S(=O)(=O)N2CCCC2)c1 | inconclusive [inhibitor, single point] | –
25 | CN(C)CC[C@@H](c1ccc(Cl)cc1)c1ccccn1 | inconclusive [inhibitor, single point] | –
26 | CCCN(CC(=O)Nc1ccccc1OC)C(=O)CSC(=S)N1CCCC1 | inconclusive [inhibitor, single point] | –
27 | O=C(CN1CCCC(O)C1)N1c2ccccc2Sc2ccc(C(F)(F)F)cc21 (stereo not given) | inconclusive [inhibitor, single point] | –
28 | COc1ccc(CNC(=O)c2csc3c2CCCC3)cc1 | inconclusive [inhibitor, single point] | –
29 | C[C@H](O)[C@@H]1C(=O)N2CCc3ccc(-c4ccccc4)cc3[C@@H]2C[C@@H]1N(C)C(=S)Nc1ccc(F)cc1 | inconclusive [inhibitor, single point] | –
30 | Cc1noc(C(=O)NCc2ccccc2)c1Cl | – | inconclusive: -31.7% [inhibitor]
31 | CCOC(=O)C1CCN(C(=O)c2cc3sc(C)cc3n2C)CC1 | – | inactive: 28%
32 | CCCCN(CC)C(=O)CSc1nc2n[nH]c(C)c2c(=N)n1-c1ccc(CC)cc1 | inconclusive [inhibitor, single point] | –
33 | COC(=O)CSc1nc(-c2ccccc2)c2c(c1C#N)CCCC2 | inconclusive [inhibitor, partial curve, poor fit] | –
34 | COc1cc(OC)cc(C(=O)NNC(=S)Nc2ccc(S(N)(=O)=O)cc2)c1 | inconclusive [inhibitor, partial curve, poor fit] | –
35 | O=C(N/N=C/c1c(Cl)[nH]c2ccccc12)c1sc2ccccc2c1Cl | inconclusive [inhibitor, single point] | –
36 | CCOc1ccc(CNC(=O)c2oc3c(c2C)-c2nn(Cc4cccc(Cl)c4)cc2CC3)cc1 | active: 11.2 µM | –
37 | CC1(C(=O)NS(=O)(=O)c2ccc(Cl)cc2)CCN1C(=O)C1(c2ccc(Cl)cc2)CCC1 (stereo not given) | inconclusive [inhibitor, partial curve, poor fit] | –
38 | O=C(/C=C/c1cccs1)Nc1nccs1 | – | inactive: 3.21%
39 | Nc1cc(N)nc(SCCOc2ccccc2)n1 | – | inactive: 63.2%
40 | Cc1nnc(Cc2ccccc2)c2n[nH]c(C)c12 | – | inactive: -21.7%
41 | O=C(Nc1ccccn1)c1ccc(-c2ccccc2)cc1 | inconclusive [inhibitor, single point] | –
42 | O=C(NNc1cc(Cl)cc(Cl)c1)c1cccs1 | inconclusive [inhibitor, full curve, poor fit] | –
43 | CCN(CC(O)CON=C1c2ccccc2-c2ccccc21)S(=O)(=O)c1ccc(C)cc1 (stereo not given) | inconclusive [inhibitor, partial curve, poor fit] | –
44 | CC(C)c1ccc(S(=O)(=O)N2CCN(Cc3cccc(F)c3)CC2)cc1 | inconclusive [inhibitor, single point] | –

Row | SMILES | Potency | activity change, negative = inhibition
45 | CCCCOc1ccccc1C1CC(=O)Nc2ccc3ccccc3c21 (stereo not given) | inconclusive [inhibitor, partial curve, poor fit] | –
46 | COc1ccc(N(CC(=O)Nc2ccc3c(c2)OCO3)S(=O)(=O)c2ccc(F)cc2)cc1 | inconclusive [inhibitor, single point] | –
47 | O=C(NCCCN1CCOCC1)c1ccc(CSCc2cccc(Cl)c2)o1 | inconclusive [inhibitor, single point] | –
48 | CC(=O)c1cccc(-c2ccnc3c2CC(C(=O)NCc2ccncc2)O3)c1 (stereo not given) | inconclusive [inhibitor, partial curve, poor fit] | –
49 | Cc1ccc(O)c(C(=O)/C=C/c2ccc3c(c2)OCCCO3)c1 | inconclusive [inhibitor, single point] | –
50 | CCOC(=O)c1ccc(N2C(=O)c3n[nH]c(-c4ccco4)c3C2c2ccc(C(=O)OC)cc2)cc1 (stereo not given) | inconclusive [inhibitor, single point] | –
51 | Cc1ccc(S(=O)(=O)N2CCN(C(=O)c3ccc(N4CCC(C)CC4)c([N+](=O)[O-])c3)CC2)cc1 | inconclusive [inhibitor, partial curve] | –
52 | O=S(=O)(c1ccccc1)c1cnn(-c2ccccc2)c1-c1ccc(F)cc1 | inconclusive [inhibitor, partial curve, poor fit] | –
53 | O=C(O)c1ccccc1N/C=C\[N+](=O)[O-] | inconclusive [inhibitor, full curve, poor fit] | –
54 | O=c1c2[nH]c3ccccc3c2ncn1C1CCCCC1 | inconclusive [inhibitor, partial curve, poor fit] | –
55 | O=C(NCc1ccco1)c1ccc(Br)c(S(=O)(=O)N2CCCCC2)c1 | inconclusive [inhibitor, single point] | –
56 | CC(=NNC(=S)N1CCCCC1)c1ccccn1 | – | inactive: -84.3%
57 | CCC(C(=O)NCCC(C)C)N(Cc1ccccc1Cl)C(=O)c1snc(C(N)=O)c1N (stereo not given) | inconclusive [inhibitor, single point] | –
58 | Cc1ccc(C2C3=C(CC(C)(C)CC3=O)N=C3c4ccccc4C(=O)C32)cc1 (stereo not given) | inconclusive [inhibitor, single point] | –
59 | Cc1cc(OCC(O)CNC(C)c2ccccc2)ccc1C(C)C (stereo not given) | inconclusive [inhibitor, single point] | –
60 | CCCCC(c1nnnn1CCOC)N1CCN(CC)CC1 (stereo not given) | – | inactive: 20.3%
61 | CCC1(c2ccccc2)NC(=O)N(CC(=O)N(C)CC(=O)Nc2ccc(F)c(F)c2F)C1=O (stereo not given) | inconclusive [inhibitor, single point] | –
62 | Nc1c(C(=O)NCc2ccccc2)c2nc3ccccc3nc2n1CCCN1CCOCC1 | inconclusive [inhibitor, partial curve, poor fit] | –
63 | COc1ccc2sc(-c3ccccc3OC)c(-c3ccc(OC)nc3)c2c1 | inconclusive [inhibitor, single point] | –
64 | Cc1ccc(NC(=O)CN2C(=O)COc3ccc(S(=O)(=O)N4CCCCCC4)cc32)c(C)c1 | – | inactive: -15.3%
65 | Cc1ccc(CNC(=O)C(=O)Nc2c3c(nn2-c2ccc(F)cc2)CSC3)cc1 | – | inactive: 10.5%
